This note sets out measurements from PubChem BioAssay AID488969 (Vanderbilt High Throughput Screening Facility, 2010).

Over roughly 110,000 compounds, “z-score” has its median near -0.1; the highest 2% begin near 2. The list shows a part of the results.

The target in the assay is Metabotropic glutamate receptor 8 (Rattus norvegicus) (UniProt P70579). Briefly: mGluR8 Gi/Go-coupled signaling modulation – cell-based, rat, thallium flux, HTS, primary screen (AID 488969). Particulars: HEK293 rat mGluR8, GIRK (G protein-gated inwardly rectifying potassium channel) thallium flux, FluoZin2; at 10 µM; stronger effect = higher value; submaximal glutamate (EC20) added with thallium.
UniProt P70579, sequence (P70579 whole entry, looked up): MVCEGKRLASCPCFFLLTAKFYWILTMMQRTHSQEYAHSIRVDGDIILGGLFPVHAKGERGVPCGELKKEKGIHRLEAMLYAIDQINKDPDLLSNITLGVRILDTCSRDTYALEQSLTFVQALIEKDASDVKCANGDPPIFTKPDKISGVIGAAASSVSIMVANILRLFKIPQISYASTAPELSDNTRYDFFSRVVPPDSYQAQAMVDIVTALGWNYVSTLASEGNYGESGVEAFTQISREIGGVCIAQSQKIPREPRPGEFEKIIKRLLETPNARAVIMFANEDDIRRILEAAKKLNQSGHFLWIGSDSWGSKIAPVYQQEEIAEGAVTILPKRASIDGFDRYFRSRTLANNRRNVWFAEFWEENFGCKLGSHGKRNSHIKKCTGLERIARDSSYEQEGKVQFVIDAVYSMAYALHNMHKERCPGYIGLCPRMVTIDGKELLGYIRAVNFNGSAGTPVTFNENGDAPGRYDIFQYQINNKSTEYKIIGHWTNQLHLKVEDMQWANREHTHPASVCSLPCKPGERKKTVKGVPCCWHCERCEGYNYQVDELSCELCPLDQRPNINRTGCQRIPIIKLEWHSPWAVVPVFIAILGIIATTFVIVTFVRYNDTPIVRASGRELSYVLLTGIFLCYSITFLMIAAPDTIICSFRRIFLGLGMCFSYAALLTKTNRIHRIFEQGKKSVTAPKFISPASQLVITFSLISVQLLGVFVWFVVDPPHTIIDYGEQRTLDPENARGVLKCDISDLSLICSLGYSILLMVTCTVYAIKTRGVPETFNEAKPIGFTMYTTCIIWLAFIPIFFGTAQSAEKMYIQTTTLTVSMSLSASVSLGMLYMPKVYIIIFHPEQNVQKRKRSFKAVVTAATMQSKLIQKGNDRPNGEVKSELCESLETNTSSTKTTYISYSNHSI
With `CCOc1ccc(-c2nn3c(-c4ccc(F)cc4)nnc3s2)cc1`, the z-score is -0.355.

The molecule `Cc1sc2ncn(C(C)C(=O)OC3CCCCC3)c(=O)c2c1C` (stereo unspecified) registered a z-score of -0.264.

As for `c1ccc(COc2cccc(CNn3cnnc3)c2)cc1`, the z-score is -0.177.

In turn, `COc1cc2c(cc1OC)C(C(=O)Nc1cccc(C)n1)C(c1cccnc1)N(C)C2=O` (stereo unspecified) returned a z-score of 1.39.

The molecule `COc1ccc(CNC(=O)C2CCC(CNS(=O)(=O)c3cccc4nsnc34)CC2)cc1` (stereo unspecified) displayed a z-score of -0.00856.

Molecule `Cc1cc(C)n(-c2nc3ccccc3c(=O)n2OCC(N)=O)n1` gave a z-score of -0.254.

In turn, `COc1ccc(C(=O)N2CCC(O)(c3ccc(F)cc3)CC2)cc1OC` showed a z-score of -0.0981.

Take `O=C(Cc1ccsc1-c1ccccc1)NO`: the z-score was -0.296.

`CCOC(=O)c1ccccc1-c1csc(NS(=O)(=O)c2ccc(Cl)cc2)n1` displayed a z-score of -0.194.

`CS(=O)(=O)N1CCCC(C(=O)NCc2cccs2)C1` (stereo unspecified): the z-score amounted to 0.48.

Consider `NC(=O)CC1SC(N)=NC1=O` (stereo unspecified), for which the z-score is -0.141.

For `O=C(CC(C(=O)N1CCc2ccccc21)n1ccnc1)NCc1cccnc1` (stereo unspecified), the z-score is 0.267.

`CCc1c(C)nc2[nH]nc(NC(=O)C(F)(F)F)n2c1=O` showed a z-score of 0.07.

In the case of `CCOC(=O)c1ccc(NC(=O)COc2cc(=O)n(CC)c3ccccc23)cc1`, the z-score was 0.467.

`COc1ccc(OC)c(C(=O)c2ccc(C(=O)Nc3ccccc3)cc2)c1` came in with a z-score of -0.73.

With `CCOC(=O)c1ccc(NC(=O)CNC(=O)c2ccccc2)cc1`, the z-score is -0.148.

As to `COc1ccc(NC(=O)CSc2ccc3ccccc3c2)cc1S(=O)(=O)N1CCCCC1`, the z-score is -0.097.

Regarding `COc1ccc(C(=O)CN(C(=O)c2ccc(Cl)cc2)N2C(=O)C3CCCCC3C2=O)cc1` (stereo unspecified), the z-score was -0.588.

Molecule `Cc1ccc(C)n1-c1ccc(C(=O)NCC2CCCO2)cc1` (stereo unspecified) came in with a z-score of -0.25.

In turn, `O=C(Nc1cccc(F)c1)c1cccnc1NCCc1ccccc1` yielded a z-score of -0.234.

The molecule `O=C(c1cccc(NS(=O)(=O)c2ccc(F)c(F)c2)c1)N1CCN(Cc2ccccc2)CC1` returned a z-score of -0.548.

For the molecule `O=C(N=Nc1c(O)n(C2OC(=O)c3ccccc32)c2ccccc12)c1ccc(O)cc1` (stereo unspecified), the z-score is -0.332.

Consider `C=CCn1c(=O)c(C(=O)Nc2cccnc2)c(O)c2ccccc21`, for which the z-score is 0.541.

In the case of `O=C(N/N=C/c1cc(Br)ccc1O)c1cccc(N2CCCC2=O)c1`, the z-score was -0.268.

`COc1cc2c(cc1NC(=O)CSc1ccccc1)oc1ccccc12` came in with a z-score of -0.258.

In the case of `O=C(COc1ccc(F)cc1)N(CC1=CCS(=O)(=O)C1)c1ccccc1`, the z-score is 0.178.

`CC(C)=CC(=O)Nc1nnc(C(C)C)s1` registered a z-score of -0.845.

As for `O=C(Oc1ccccc1)c1ccc2nsnc2c1`, the z-score was found to be 0.0931.

On to `COc1ccc(CCNC(=O)CSc2nnc(CNc3ccc(Cl)cc3)o2)cc1OC`, for which the z-score is -0.278.

`COc1ccc(Cl)cc1-c1nc(-c2ccc(NC(=O)c3ccncc3)cc2)no1`: the z-score worked out at 1.33.

Consider `CC(CC(=O)Nc1cc(C(F)(F)F)ccc1Cl)c1ccccc1` (stereo unspecified), for which the z-score was found to be 1.48.

The molecule `CCOc1ccc(CN(C)C(C)C(=O)Nc2ccc([N+](=O)[O-])cc2Cl)cc1OC` (stereo unspecified) registered a z-score of 0.0908.

`Cc1ccc(-n2nc3ccc(NC(=O)/C=C/c4ccco4)cc3n2)cc1`: the z-score was -0.173.

On to `COCCN(C(=O)Cc1cccs1)C(C(=O)NCc1ccc(OC)cc1)c1ccc(C)cc1` (stereo unspecified), for which the z-score is -0.364.

With `COc1cc(/C=C/C(=O)O)cc(S(=O)(=O)NCCCO)c1OC`, the z-score is -0.201.

Molecule `CN1C(=O)c2ccccc2Sc2ccc(NC(=O)N3CCCC3)cc21` yielded a z-score of -0.574.

Regarding `Cc1cc(C)n2nc(SCn3nnc4ccccc4c3=O)nc2n1`, the z-score is -0.219.

The molecule `C=CCOc1ccc(CNn2nnnc2N)cc1` registered a z-score of 0.102.

`COCCn1c(SCC(=O)Nc2nnc(C)s2)nnc1-c1ccncc1` showed a z-score of -0.0183.

Take `O=C(CNC(=O)c1ccc(S(=O)(=O)N2CCCC2)cc1)N/N=C/c1ccc(Cl)cc1`: the z-score was -0.335.

In the case of `CC(C)NC(=O)CN1CCN(c2ncccn2)CC1`, the z-score is -0.281.

As for `Cc1ccc(Cl)cc1N1CCN(C(=O)COc2ccc3c(c2)CCC3)CC1`, the z-score came to 0.176.

Molecule `C=CCN1C(=O)c2ccccc2Sc2ccc(C(=O)N3CCN(C)CC3)cc21` yielded a z-score of -0.000615.

`Cc1ccc(-c2nc3ccccc3[nH]2)cc1N` returned a z-score of 0.0589.

Molecule `O=C(Nc1ccc(F)cc1)c1cccc(NC(=O)C2C3CC4OC(=O)C2C4C3)c1` (stereo unspecified) came in with a z-score of -0.357.

`Cc1cc(N)n(-c2ccc3ccccc3c2)n1` came in with a z-score of -0.137.

In the case of `N#Cc1cnn2c1nc(N1CCOCC1)c1ccccc12`, the z-score was -0.44.

In the case of `COc1cccc(C(=O)/C=C/c2ccc(OCC#N)c(OC)c2)c1`, the z-score was -0.357.

`CC(C)C(=O)Nc1ccc2c(c1)nc1n2CCSC1` registered a z-score of -2.11.

`O=C(CN(Cc1cccs1)S(=O)(=O)c1ccc(S(=O)(=O)N2CCCCC2)cc1)Nc1ccccc1` gave a z-score of -0.158.

For the molecule `Cc1ccccc1-n1nnnc1SCCCC(=O)c1ccc(F)cc1`, the z-score was -0.474.

`CCCn1cc(SCC(=O)Nc2ccc3c(c2)OCO3)c2ccccc21` displayed a z-score of -0.253.

As to `Cc1nc(NC(=O)CCCC(=O)Nc2nc(C)c(C)s2)sc1C`, the z-score was 0.506.

Take `CCOCCN(C=O)c1cccc(OC)c1`: the z-score is -0.166.

In the case of `COC(=O)Nc1ccc(S(=O)(=O)N(C)CC(F)(F)C(F)F)cc1`, the z-score was -0.0544.

Take `Cc1ccc(C(=O)CSc2nnc(-c3ccccc3)n2-c2ccccc2)o1`: the z-score is -0.348.

On to `COc1cccc(NC(=S)N(Cc2ccco2)C(C)c2ccco2)c1` (stereo unspecified), for which the z-score was -1.14.

In turn, `COc1c(C(C)C)cc(NC(C)=O)cc1C(C)C` displayed a z-score of -0.485.

For `O=[N+]([O-])c1cc(C(F)(F)F)ccc1Sc1nccn1Cc1ccccc1`, the z-score was -0.351.

The molecule `CC(=O)Nc1ccc(NC2=CC(=O)CC(C)(C)C2)cc1` displayed a z-score of -0.413.

The molecule `COc1ccc(Sc2ccccc2CN(C)C)cc1OC` displayed a z-score of -0.000634.

`Cn1c(SCC(=O)NC(C)(C)C)nc(O)cc1=O` showed a z-score of -0.0162.

As for `CCCCOc1ccc(C(C)NC(=O)CCS(=O)(=O)Cc2ccc(Cl)cc2)cc1` (stereo unspecified), the z-score is 0.0425.

`Cc1cccc(-n2nc(C(=O)Nc3ccccc3)n3c(=O)cc(-c4ccccc4)nc23)c1`: the z-score is -0.275.

In turn, `CCCC(=O)Nc1nnc(SCC(=O)NCc2cccs2)s1` registered a z-score of -0.733.

As for `Cc1c(NC(=O)/C(C#N)=C/c2cccs2)c(=O)n(-c2ccccc2)n1C`, the z-score came to 0.559.

Take `CCN1C(=O)N/C(=C/c2ccc(Sc3ccc(C)cc3)o2)C1=O`: the z-score turned out to be 0.102.

As to `Cc1cc(C)c2c(N)c(C(=O)NN3CC(=O)N(c4ccccc4F)CC3=O)sc2n1`, the z-score is -0.153.

`COCCCNC(=S)N1CCN(S(C)(=O)=O)CC1`: the z-score is -0.135.

Consider `COc1ccc(C(=O)C(OC(=O)c2ccccc2Cl)c2ccccc2)cc1` (stereo unspecified), for which the z-score was -0.172.

As to `CCn1c(Cc2ccccc2)nnc1SCC(=O)N1CCCCC1`, the z-score was -0.423.

In turn, `CCSc1nnc(NC(=O)C2CCCCC2)s1` came in with a z-score of 0.298.

For `Cc1ccc(-n2c(SCc3nnc4n3CCC4)nnc2-c2ccccc2)cc1`, the z-score is 1.68.

`COc1ccc(/C=C2\CCCc3c2nc2ccccc2c3C(=O)OCC(=O)c2c(N)n(C)c(=O)n(C)c2=O)cc1` displayed a z-score of -0.224.

As for `CSc1nc(C)cc(SCC(=O)Nc2ccccc2)n1`, the z-score came to 0.363.

Molecule `Cc1c(NC(=O)c2coc(=O)c(Br)c2)c(=O)n(-c2ccccc2)n1C` gave a z-score of -0.0547.

Molecule `Cc1ccccc1C(CC(=O)c1cccs1)C(C#N)C#N` (stereo unspecified) displayed a z-score of -0.178.

With `Cc1ccc(SCCC(=O)N/N=C/c2ccccc2O)cc1`, the z-score is -0.049.

Take `NC(=O)C1CCN(Cc2nc3cc(Cl)ccc3c(=O)[nH]2)CC1`: the z-score was found to be 0.184.

With `C=CCn1c(C(C)NC(=O)C(C)(C)C)nc2ccccc21` (stereo unspecified), the z-score amounted to 0.41.

Molecule `Cc1ccc(N(Cc2ccc(C(=O)NC3CCCCC3)cc2)S(C)(=O)=O)cc1C` registered a z-score of -0.289.

Turning to `O=C(CN(c1ccccc1)S(=O)(=O)c1ccccc1)N/N=C/c1ccco1`, the z-score is -0.795.

As for `O=C(NCc1cccs1)C1CC(=O)N(C2CCCC2)C1` (stereo unspecified), the z-score amounted to 0.227.

Consider `Cc1ccc2c(c1)CC1(CN2C)C(=O)OC(C)(C)OC1=O`, for which the z-score is -0.249.

Take `COc1ccc(C(=O)Nc2c(C)ccc3nsnc23)cc1[N+](=O)[O-]`: the z-score was found to be 0.723.

Molecule `O=C1CC(N(C(=O)c2ccco2)c2ccc(F)cc2)C(=O)N1c1ccc(F)cc1` (stereo unspecified) gave a z-score of 0.415.

In turn, `CCCSc1nsc(SCCC)c1C#N` yielded a z-score of -0.0653.

As to `Cc1c(Nc2ncnc3c2cnn3-c2ccccc2)c(=O)n(-c2ccccc2)n1C`, the z-score was -0.362.

The molecule `O=C(c1cc(=O)[nH]c2ccccc12)N1CCN(S(=O)(=O)c2ccc3ccccc3c2)CC1` had a z-score of 0.0401.

As for `O=C(OCc1ccc(Cl)cc1Cl)c1ccncc1`, the z-score turned out to be 0.0599.

`O=C(c1cnc2n(c1=O)CCS2)N(c1ccccc1)C1CCCCC1` had a z-score of 0.121.

In turn, `O=C(NCCCN1CCOCC1)c1ccc(CS(=O)(=O)c2ccc(Br)cc2)o1` came in with a z-score of -0.0398.

Consider `CN(C)CCCO/N=C(\c1ccccc1)c1ccncc1`, for which the z-score amounted to 1.01.

As to `CN(C)c1cccc(C(=O)OCC(=O)Nc2nccs2)c1`, the z-score is -0.0253.

As for `Nc1nc(CSc2nc3ccccc3[nH]2)nc(N2CCOCC2)n1`, the z-score is -0.701.

Molecule `N#CC1=C(N)OC2=C(CC/C2=C\c2ccccc2Cl)C1c1ccccc1Cl` (stereo unspecified) had a z-score of -0.183.

For the molecule `Cc1ccc(Cn2nnc3c(=O)[nH]c(C4CCCN(S(=O)(=O)c5ccccc5)C4)nc32)cc1` (stereo unspecified), the z-score worked out at 0.32.

For `COc1cccc(-c2nc(CS(=O)(=O)CC(=O)N3CCc4ccccc43)c(C)o2)c1`, the z-score was -0.134.

On to `Cc1cccc(S(=O)(=O)C(C#N)c2nc3ccccc3nc2N2CCOCC2)c1` (stereo unspecified), for which the z-score is -0.193.

Turning to `COc1ccc(CCNC(=O)CC2SC(=NCCC(C)C)NC2=O)cc1OC` (stereo unspecified), the z-score was -0.444.

`O=c1[nH]c2ccc(Cl)cc2c(-c2ccccc2)c1SC(=S)N1CCCCC1` came in with a z-score of -0.145.

As for `COc1ccccc1NS(=O)(=O)c1cc(NC(=O)Nc2ccc(Cl)cc2Cl)ccc1N1CCCCC1`, the z-score was determined as 0.372.

The molecule `Cc1ccccc1Cn1nnc(-c2ccc3c(c2)OCO3)n1` showed a z-score of -1.14.

Consider `O=C(CCCO)N/N=C/c1cc(Br)ccc1O`, for which the z-score is -0.0384.

Consider `CCOCCCNC(=O)c1ccc2c(c1)ncn2C1CCCC1`, for which the z-score was -0.215.

`Cn1c(SCc2nc(-c3ccc(Cl)cc3)no2)nnc1-c1ccccc1` returned a z-score of -0.146.

Consider `CC1CN(C(=O)c2ccccc2)c2ccccc2NC1=O` (stereo unspecified), for which the z-score amounted to 0.401.

In the case of `N#Cc1c(NC(=O)CSc2nc3ccccc3s2)sc2c1CCCC2`, the z-score is 0.197.

For `CCS(=O)(=O)Nc1cccc(-c2nc3cccnc3s2)c1C`, the z-score was -0.0197.

Take `CN(C)CCCN1C(=O)C(=O)/C(=C(/O)c2ccc3c(c2)OCO3)C1c1ccco1` (stereo unspecified): the z-score worked out at 0.0087.

`CC1CCCN(C(=O)c2ccc3c(c2NCCO)C(=O)c2ccccc2C3=O)C1` (stereo unspecified) yielded a z-score of 0.318.
